# Publication PMC4336329 (PLoS ONE, 2015)
# The campaign covered roughly 310,000 compounds. About 2,200 (0.71%) showed an effect of 50% or more. Effects have a minus sign here. The list shows a part of the results.
# Target: human ether-à-go-go-related gene (hERG) potassium channel (human, UniProt Q12809)
# Experiment: primary screen, population patch clamp on CHO cells stably expressing hERG
# human ether-à-go-go-related gene (hERG) potassium channel, sequence (Q12809 whole entry, looked up): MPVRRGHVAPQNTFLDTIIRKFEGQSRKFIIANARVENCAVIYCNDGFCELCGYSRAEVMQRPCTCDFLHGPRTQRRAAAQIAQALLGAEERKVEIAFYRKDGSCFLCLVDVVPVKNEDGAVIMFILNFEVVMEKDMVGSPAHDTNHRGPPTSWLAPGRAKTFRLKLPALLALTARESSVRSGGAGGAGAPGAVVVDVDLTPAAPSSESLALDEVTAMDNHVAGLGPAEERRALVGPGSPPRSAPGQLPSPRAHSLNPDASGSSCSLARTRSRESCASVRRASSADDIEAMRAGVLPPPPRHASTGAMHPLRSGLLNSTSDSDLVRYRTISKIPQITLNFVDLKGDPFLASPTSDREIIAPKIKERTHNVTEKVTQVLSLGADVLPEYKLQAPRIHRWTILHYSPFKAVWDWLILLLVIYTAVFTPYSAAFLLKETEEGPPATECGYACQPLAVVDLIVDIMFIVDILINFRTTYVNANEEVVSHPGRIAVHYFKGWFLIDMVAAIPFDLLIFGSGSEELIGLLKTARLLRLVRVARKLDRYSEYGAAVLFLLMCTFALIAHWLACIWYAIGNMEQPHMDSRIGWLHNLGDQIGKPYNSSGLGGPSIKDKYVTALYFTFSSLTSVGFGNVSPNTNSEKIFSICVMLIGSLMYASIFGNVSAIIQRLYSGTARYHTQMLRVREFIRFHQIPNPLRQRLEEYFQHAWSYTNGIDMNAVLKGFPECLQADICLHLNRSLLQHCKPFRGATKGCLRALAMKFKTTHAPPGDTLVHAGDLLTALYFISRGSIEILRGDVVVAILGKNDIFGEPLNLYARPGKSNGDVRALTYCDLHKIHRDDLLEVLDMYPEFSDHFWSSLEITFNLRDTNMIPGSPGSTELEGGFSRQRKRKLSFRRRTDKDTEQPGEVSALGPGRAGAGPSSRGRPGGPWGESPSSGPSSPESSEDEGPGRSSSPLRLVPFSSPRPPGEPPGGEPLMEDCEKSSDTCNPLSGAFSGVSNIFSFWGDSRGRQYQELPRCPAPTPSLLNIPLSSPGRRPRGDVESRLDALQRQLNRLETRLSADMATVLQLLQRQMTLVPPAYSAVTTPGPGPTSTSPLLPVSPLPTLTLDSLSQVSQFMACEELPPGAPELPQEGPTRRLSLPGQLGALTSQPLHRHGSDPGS
row,Structure (SMILES),"hERG current change (%, negative = inhibition) at 1uM [%]"
1,O=C(NCc1ccccn1)c1ccc2c(c1)N(Cc1ccccc1)CCS2,7.4
2,COc1ccc(Br)cc1C(=O)Nc1nnn(C)n1,8.9
3,CCCS(=O)(=O)c1nc(S(=O)(=O)c2ccc(C)cc2)c(N2CCCC(C)C2)s1 (centres unmarked),9.79
4,O=C(NNC(=O)c1ccccc1[N+](=O)[O-])c1ccco1,17.8
5,COc1ccc(-c2cn(-c3ccc(C)cc3C)c(=S)[nH]2)cc1OC,12.1
6,C=CCn1c(=O)c2c(nc3n2CCCN3CCc2ccc(OC)c(OC)c2)n(C)c1=O,-47.3
7,Cc1onc(-c2ccccc2)c1C(=O)OCC(=O)NC(=O)c1ccccc1,4.83
8,O=C(COC(=O)CCSc1ccccc1)NCc1ccccc1,5.72
9,Cc1ccc(C)c(N=Nc2ccc(O)c3ncccc23)c1,14.9
10,O=c1[nH]c(=O)n(Cc2ccco2)c(O)c1C=NCc1cccs1,11.2
11,CCN(CC(=O)NCc1ccc(F)cc1)C(=O)/C=C/c1ccc(S(=O)(=O)N(CC)CC)cc1,4.43
12,Cc1ccccc1C(=O)Nc1ccc2nc3n(c(=O)c2c1)CCC3,7.13
13,COc1cccc(Cn2nnc(C(=O)NCc3ccc(F)cc3)c2N)c1,8.23
14,Cc1cc2c(s1)c1cnn(CC(=O)NCCc3ccccc3)c(=O)c1n2C,2.17
15,O=C(N/N=C/c1cc([N+](=O)[O-])ccc1O)C1C2CCCCC21 (centres unmarked),13
16,O=C(Cn1ncc2c1-c1ccccc1OC2)Nc1ccc(Cl)cn1,-12.7
17,O=C(NCCc1ccco1)C(=O)NCC1OCCCN1S(=O)(=O)c1cc(F)ccc1F (centres unmarked),4.93
18,CC1Oc2ccccc2N(Cc2ccccc2Cl)C1=O (centres unmarked),22.9
19,CS(=O)(=O)c1ccccc1-c1nc(-c2cc(C(F)(F)F)cc(C(F)(F)F)c2)no1,3.75
20,Cc1cccc(C(=O)NC2CCN(S(=O)(=O)c3ccccc3F)CC2)c1,10.7
21,Cc1ccc(SCc2cc(=O)[nH]c(Nc3nc(C)c4ccccc4n3)n2)cc1,8.32
22,O=C1/C(=C/c2ccc(F)cc2)CCC1C1CCCC1 (centres unmarked),6.15
23,Cc1ccc(S(=O)(=O)C(CCC(=O)c2ccc(Cl)cc2)C(N)=O)cc1 (centres unmarked),-2.59

row,Structure (SMILES),"hERG current change (%, negative = inhibition) at 1uM [%]"
1,CCOc1ccc2nc(SCC(=O)NC3CC3)sc2c1,2.93
2,COc1ccc(S(=O)(=O)N(C)c2ccc(C(=O)N3CCCC3)cc2)cc1,10.8
3,Cc1nnc(SCC(=O)NC(C)(C)C)n1NCc1ccc(N(C)C)cc1,21.7
4,CCOc1ccc(-n2c(O)c(N=Nc3c(C)n(C)n(-c4ccccc4)c3=O)c(=O)[nH]c2=O)cc1,11.9
5,CC1(C)C(=O)Nc2ccccc2N1C(=O)COC(=O)C12CC3CC(CC(O)(C3)C1)C2,17.7
6,Cn1cc(CN2CCC(n3nccc3NC(=O)CCCc3ccccc3)CC2)cn1,16.5
7,Cc1cc(C)cc(N)c1,3.68
8,Cc1ncoc1C(=O)Nc1ccc2c(c1)OCCO2,-0.892
9,Cc1[nH]c2c(C(F)(F)F)cccc2c1CCN.Cl,4.57
10,O=C(NNc1c2ccccc2nc2ccccc12)c1ccccc1O,10.4
11,CCOC(=O)CCSc1nc(C)cc(C(F)(F)F)c1C#N,13.4
12,Cc1ccc2onc(CC(=O)O)c2c1,16
13,Cc1ccc2nc(Nc3nc(CSc4nc5ccccc5s4)cc(=O)[nH]3)nc(C)c2c1,20.5
14,CC(=O)CCSc1ncnc2sc(-c3ccccc3)cc12,21
15,CC(=O)c1cccc(NC(=O)/C(=C\c2cccnc2)NC(=O)c2ccco2)c1,5.81
16,COc1ccc(/C=C2\SC(=S)N(CCCC(=O)Nc3ccccn3)C2=O)cc1OC,17.2
17,COc1ccccc1N=C1SC(C(=O)Nc2ccc(F)cc2)CC(=O)N1C (centres unmarked),-14.8
18,CCN(C(=O)c1cc2c(=O)[nH]c3ccc(C)cc3c2s1)c1ccccc1F,8.96
19,CCC(=O)Nc1cccc(NC(=O)COc2ccc(OC)cc2)c1,-4.41
20,O=C(O)c1cc(O)ccc1N=Nc1ccccc1,17.6
21,O=C1/C(=C/c2cccs2)SC(=S)N1c1cccc(O)c1,12.5
22,CC(=O)NCCC(=O)Nc1nc(-c2ccc3c(c2)OCCO3)cs1,-0.992
23,CC(C)OC(=O)c1c(NC(=O)CCC(=O)O)sc2c1CCCCC2,5.97

row,Structure (SMILES),"hERG current change (%, negative = inhibition) at 1uM [%]"
1,O=C(Nc1ccccc1)c1ccc(-n2cnnn2)cc1,8.08
2,CC(=O)NS(=O)(=O)c1ccc(NC(=S)Nc2ccccc2)cc1,10
3,COc1cccc(/C=N/NC(=O)C(=O)NCc2cccnc2)c1O,3.36
4,COc1cc(CNc2nnnn2C)cc(OC)c1OC,11.3
5,CN1CCN(C(=O)C2=C[C@@H](c3ccc(Br)cc3)C[C@@H](OCc3ccc(CO)cc3)O2)CC1,-4.96
6,O=C(O)c1cc(Cl)c(Cl)cc1C(=O)N1CCOCC1,17.7
7,O=C(N/N=C/C=C/c1ccco1)c1ccncc1,7.59
8,CCCN(C(=O)c1cc(C)ccc1C)c1c(N)n(Cc2ccccc2)c(=O)[nH]c1=O,20.5
9,COc1ccc(OC)c(NC(=O)CCS(=O)(=O)c2cc3c(cc2C)NC(=O)CO3)c1,9.96
10,O=c1[nH]c(=O)n([C@H]2C[C@H](O)[C@@H](CO)O2)cc1Br,8.21
11,Cc1ccc(NC(=O)CN(C)Cc2ccc(Cl)cc2)cc1,21.3
12,O=C(NCCc1nc2ccccc2[nH]1)/C(=C/c1ccco1)NC(=O)c1ccc(Br)cc1,-34.7
13,CCOc1ccc(N2CC(C(=O)Nc3cccc(C(=O)NC4CC4)c3)CC2=O)cc1 (centres unmarked),6.94
14,Cc1ccc(/C=C/C(=O)N2CCc3ccccc32)o1,10.6
15,c1ccc(C2OC3c4cccc5cccc(c45)C3N2c2ccccc2)cc1 (centres unmarked),19.9
16,O=C(NNC(=O)c1ccc(NC(=O)c2ccccc2)cc1)Nc1ccccc1,13.2
17,O=C(Cc1ccc(Cl)cc1Cl)NCC1(N2CCOCC2)CCCCC1,3
18,CCn1cc(C(=O)NCCCN2CCC(C)CC2)c(=O)c2cc(S(=O)(=O)N3CCOCC3)ccc21,7.12
19,CCCN1CCN(C(=O)CS(=O)(=O)Cc2nc(-c3cccc(OC)c3)oc2C)CC1,1.3
20,O=C(CSc1nc2nccnc2c(=O)n1Cc1cccs1)Nc1ccccc1,-6.86
21,S=C(NC1CCCCC1)c1ccc2c(c1)OCO2,3.61
22,Cc1ccc(S(=O)(=O)N(C)C)cc1NC(=O)C(C)[N+]12CCN(CC1)CC2.[Cl-] (centres unmarked),23.4
23,COc1ccc(C(C(=O)NC2CCCC2)N(C(=O)c2snc(C(N)=O)c2N)C2CCCC2)cc1OC (centres unmarked),13.4

row,Structure (SMILES),"hERG current change (%, negative = inhibition) at 1uM [%]"
1,CCS(=O)(=O)N1CCC(C(=O)NCCCN2CCN(c3ccccc3F)CC2)CC1,-1.04
2,COCCCN1C(=O)C(=O)/C(=C(/O)c2ccc(OC)cc2)C1c1cccc(OC)c1 (centres unmarked),3.46
3,Cc1cccc(NC(=O)C2CC(=O)n3cnnc3S2)c1 (centres unmarked),2.3
4,O=C(CCC(=O)OCC(=O)c1ccccc1)NC1CCCCC1,13.5
5,Cc1ccc(-n2c(C)cc(C(=O)NS(=O)(=O)c3ccc(C)cc3)c2C)cc1,-4.4
6,CC(C)OC(=O)CCCN1C(=O)c2ccc(N)cc2C1=O,11.9
7,O=C(Cc1ccccc1)Nc1cc(C(=O)c2ccccc2)ccc1N1CCOCC1,-5.53
8,CCOC(=O)C1CCN(C(=O)CSc2nc3ncccc3[nH]2)CC1,12
9,CSCCC1NC2(C(=O)Nc3c2ccc(Cl)c3C)[C@@H]2C(=O)N(C3CCCC3)C(=O)[C@H]12 (some centres unmarked),3.44
10,COc1ccc(CNC(=O)Nc2cccs2)cc1OC,7.79
11,c1ccc(CSc2ncnc3c2cnn3-c2ccccc2)cc1,-1.56
12,OCCOc1ccc(C2=NCCO2)cc1,-25.3
13,Cc1nc2c3ccccc3n(CC#N)c(=O)n2n1,8.95
14,CCOC(=O)C(CSCC(=O)c1ccc(Cl)cc1Cl)NC(=O)OC(C)(C)C (centres unmarked),1.49
15,COc1ccc(-n2c(SCc3nnc(-c4ccccc4)o3)nnc2-c2ccccc2)cc1,5.1
16,Cc1ccc(NC(=O)Cn2c(O)c(N=NC(=O)c3ccncc3)c3ccccc32)cc1,12.7
17,OCC1(Cc2ccccc2)CCN(Cc2ccccn2)CC1,4.6
18,Cc1ccnc(NC(=O)c2cc(-n3cnnc3)ccc2Cl)c1,14.2
19,CN(C)C(=O)Cn1c(SCC(=O)Nc2ccc3c(c2)OCO3)nc2ccccc21,14
20,Cc1cccc(NC2=C(NC(=O)c3ccccc3)C(=O)c3ccccc3C2=O)c1,5.94
